Some of the results follow.
Each compound was assayed on S. aureus RN4220 (assay: growth inhibition call (relative growth <= 0.2)). Settings: 50 µM.

SMILES	growth inhibition call
Cc1ccc(C(=O)N2c3ccccc3Sc3ccccc32)cc1	inactive
O=C(/C=c1/nc2c([nH]c1=O)=NON2)c1ccccc1	active
COc1ccc(NC(=O)Nc2ccc3c(c2)C(=O)N([C@H](C)CO)C[C@H](C)[C@H](CN(C)S(=O)(=O)c2ccc(F)cc2)OCCCC[C@H](C)O3)cc1	inactive
C[C@H](CO)N1C[C@H](C)[C@@H](CN(C)CC2CC2)OCCCC[C@H](C)Oc2ccc(NC(=O)Nc3cccc4ccccc34)cc2C1=O	inactive
C[C@@H]1CN([C@@H](C)CO)C(=O)CCCn2nncc2CO[C@H]1CN(C)C(=O)c1ccc(N2CCN(C)CC2)cc1	inactive
C(=N\c1ccccc1)/c1ccccc1	inactive
CC(=O)O[C@H]1[C@H](O)[C@H](O)[C@H](O[C@@H]2[C@@H](Oc3cc(O)c4c(=O)cc(-c5ccc(O)c(O)c5)oc4c3)O[C@@H](C(=O)O)[C@H](O)[C@@H]2O)O[C@@H]1C	inactive
C[C@@H]1CN([C@H](C)CO)C(=O)CCCn2cc(nn2)CO[C@H]1CN(C)S(=O)(=O)c1ccc(Cl)cc1	inactive
C[C@H](CO)N1C[C@H](C)[C@@H](CN(C)C(=O)Nc2ccc(C(F)(F)F)cc2)OCCCC[C@H](C)Oc2ccc(NC(=O)Nc3ccc(F)cc3)cc2C1=O	inactive
C[C@H](CO)N1C[C@H](C)[C@H](CN(C)C(=O)Nc2ccc(F)cc2)Oc2c(NS(=O)(=O)c3cn(C)cn3)cccc2C1=O	inactive
CN1C[C@@H]2CN(C(=O)[C@H]3CCOC3)C[C@H]2C1=O	inactive
Cc1ccc(S(=O)(=O)N(C)C[C@H]2Oc3c(NC(=O)c4ccncc4)cccc3C(=O)N([C@H](C)CO)C[C@@H]2C)cc1	inactive
C[C@@H]1CN([C@H](C)CO)C(=O)c2cc(NC(=O)Cn3cnnn3)ccc2O[C@H]1CN(C)S(=O)(=O)c1cccs1	inactive
C[C@@H]1CCCCO[C@H](CN(C)Cc2ccccc2)[C@H](C)CN([C@H](C)CO)C(=O)c2cc(NC(=O)Nc3ccccc3)ccc2O1	inactive
COc1ccc(CNC(=O)C[C@H]2CC[C@H]3[C@@H](COc4ccc(NC(=O)C5CC5)cc4C(=O)N3C)O2)cc1	inactive
C[C@H](CO)N1C[C@H](C)[C@@H](CN(C)S(=O)(=O)c2cn(C)cn2)Oc2ncc(/C=C/c3ccccc3)cc2C1=O	inactive
O=C(C[C@H]1CC[C@@H]2[C@H](COC[C@H](O)CN2Cc2cccc(C(F)(F)F)c2)O1)NCCc1ccncc1	inactive
C[C@H](CO)N1C[C@H](C)[C@@H](CN(C)S(=O)(=O)c2ccc(F)cc2)Oc2ccc(NS(=O)(=O)c3ccccc3)cc2CC1=O	inactive
Cc1noc(C)c1NC(=O)Nc1ccc2c(c1)C(=O)N([C@H](C)CO)C[C@@H](C)[C@@H](CN(C)C(=O)Nc1ccccc1)OCCCC[C@@H](C)O2	inactive
C=C/C=C/[C@@H]1C(=C)CN2[C@H]1[C@H](Cc1ccccc1)OC(=O)[C@@H]2Cc1ccc(-n2cc(COc3ccccc3/C=C(C)/C=C/C(=O)NO)nn2)cc1	inactive

SMILES	growth inhibition call
CCc1ccc(NC(=N)N=C(N)N)cc1	inactive
O=C(C[C@@H]1C[C@H]2c3cc(NC(=O)c4ccc5c(c4)OCO5)ccc3O[C@H]2[C@H](CO)O1)NCCN1CCCCC1	inactive
Cc1noc(C)c1S(=O)(=O)Nc1ccc2c(c1)C(=O)N([C@H](C)CO)C[C@H](C)[C@@H](CN(C)C(=O)Nc1cccc3ccccc13)OCCCC[C@@H](C)O2	inactive
COc1ccc(NC(=O)Nc2ccc3c(c2)C(=O)N([C@@H](C)CO)C[C@@H](C)[C@@H](CN(C)Cc2ccc(Cl)c(Cl)c2)O3)cc1	inactive
COCC(=O)N1C[C@H](C)[C@H](OC)CN(C)C(=O)c2ccc(NC(=O)Nc3ccccc3)cc2OC[C@H]1C	inactive
C[C@H]1CN([C@@H](C)CO)C(=O)Cc2cc(NC(=O)Nc3cccc4ccccc34)ccc2O[C@H]1CN(C)C(=O)Nc1ccc(F)cc1	inactive
COCC#Cc1ccc([C@H]2[C@@H](CO)N3C(=O)CN(C(=O)C4CCOCC4)C[C@H]23)cc1	inactive
COc1cccc(S(=O)(=O)Nc2ccc3c(c2)[C@H]2C[C@H](CC(=O)NCc4ccccc4F)O[C@@H](CO)[C@H]2O3)c1	inactive
C[C@H](CO)N1C[C@H](C)[C@@H](CN(C)C(=O)NC2CCCCC2)OCCCC[C@H](C)Oc2ccc(NS(=O)(=O)c3ccc(F)cc3)cc2C1=O	inactive
C[C@H]1CN([C@@H](C)CO)C(=O)c2cc(NC(=O)CCCN(C)C)ccc2O[C@H]1CN(C)Cc1ccccc1	inactive
C[C@@H]1CCCCO[C@H](CN(C)Cc2ccc3c(c2)OCO3)[C@@H](C)CN([C@H](C)CO)C(=O)c2cc(NC(=O)Nc3ccc4c(c3)OCO4)ccc2O1	inactive
Nc1nnc(N)c2ccccc12	inactive
O=C(C[C@H]1CC[C@@H]2[C@H](COC[C@@H](O)CN2S(=O)(=O)c2ccc(Oc3ccccc3)cc2)O1)NCCN1CCCCC1	inactive
C[C@@H]1CN([C@@H](C)CO)C(=O)c2ccccc2-c2ccccc2CO[C@@H]1CN(C)Cc1cccc(C(F)(F)F)c1	inactive
Cc1noc(C)c1NC(=O)N[C@H]1C=C[C@@H](CC(=O)N2CCN(C)CC2)O[C@@H]1CO	inactive
C[C@H]1CN([C@@H](C)CO)C(=O)c2cc(NC(=O)c3ccncc3)ccc2O[C@@H]1CN(C)Cc1ccc(Oc2ccccc2)cc1	inactive
C[C@@H]1CN([C@@H](C)CO)C(=O)c2cc(C#Cc3cccnc3)cnc2O[C@@H]1CN(C)S(=O)(=O)c1ccccc1F	inactive
C[C@H]1CN([C@@H](C)CO)C(=O)c2cc(C#Cc3ccc(F)cc3)cnc2O[C@H]1CN(C)CC1CCOCC1	inactive
Cn1c(=O)c2c(nc(N3CCCCC3)n2CCN)n(C)c1=O	inactive
c1cnc2ccc3ncccc3c2c1	inactive
